For the experiment, the system named is NCI-H322M lung. The experiment in a line: NCI anticancer screen, dose series, 48 h.

Where “and” joins values, the source holds several entries; their conditions need not be identical. Identical values can stand only once.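 Test compounds were applied to cells in 96-well plates for 48 hours at 5 doses. GI50 = concentration required for 50% inhibition of growth. TGI: concentration producing complete growth inhibition.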

Turning to `Cc1ccc(OCC2=NC3S/C(=C/c4ccc([N+](=O)[O-])o4)C(=O)N3N2)cc1` (configuration not stated), the TGI stood at 30 µM.
As to `N#Cc1ccccc1C#C/C=C\C#Cc1ccccc1N`, the GI50 was 11.9 µM and the TGI is above 100 µM.
For `c1ccc(-c2n(Cc3ccc4ccccc4c3)cc[n+]2Cc2ccc3ccccc3c2)cc1` the same measures were 1.42 µM and 2.82 µM.
`COc1ccc(NC(=O)CC(=O)NNC(Sc2ccccc2)c2cc(N=Nc3ccc(Br)cc3)ccc2O)cc1` (configuration not stated) gave a TGI above 10 µM.
Still for that read-out and setting: the value for `O=C(/C=C/C(Cl)(Cl)Cl)Nc1ccc(Cl)cc1` was 31.3 µM; that for `Cc1cc(C)c2c(c1)CC1(Cc3ccc(C)c(C)c3C1=O)C2=O` (configuration not stated) was above 100 µM; that for `Nc1ncnc2c1ncn2-c1ccc([N+](=O)[O-])cn1` was above 100 µM.
Regarding `CCN(CC)c1ccc2nc3c4ccccc4c(=O)cc-3n(-c3ccccc3)c2c1`, the GI50 was 1.57 µM and the TGI was 4.06 µM.
Compound `NS(=O)(=O)c1nnc(NC(=O)c2cccc([N+](=O)[O-])c2)s1` registered a TGI above 100 µM.
Compound `O/C(=C\c1nc2ccccc2nc1/C=C(\O)c1ccc(F)cc1)c1ccc(F)cc1` registered a TGI above 100 µM.
As to `CC(C)(C)NC(=O)[C@H]1CC[C@H]2[C@@H]3CC[C@H]4NC(=O)C=C[C@]4(C)[C@H]3CC[C@]12C`, the GI50 was above 100 µM and the TGI was above 100 µM.
`C[C@@H]1OC2(O)[C@H]3CCCN3S(=O)(=O)CCN2C1=O` (some centres not stated) had a TGI above 100 µM.
The same measure, in the same setting: in the case of `CCN(CC)CCCNc1ccc([N+](=O)[O-])c2nc3ccc(OC)cc3c(N)c12` it was 2.08 µM.
Still for that read-out and setting: in the case of `CC1(C(=O)O)C[C@](C)(C(=O)OCc2ccccc2)C[C@](C)(C(=O)OCc2ccccc2)C1` (some centres not stated) it was above 100 µM.
As for `COc1ccccc1/C=C/C1=C(C)CCC(c2ccccc2OC)C1C` (configuration not stated), the GI50 is 0.261 µM and the TGI is above 100 µM.
Compound `COc1cc(C(c2cccc3ccccc23)N2C(=O)CCC2C(=O)O)cc(OC)c1OC` (configuration not stated) returned a TGI above 100 µM.
Still for that read-out and setting: in the case of `CCOC(=O)C(NO)C(Sc1ccccc1)c1ccc(OC)cc1` (configuration not stated) it was above 100 µM; in that of `c1ccc(-c2c3c(nc4c2CC[C@H]4NC2=NCCN2)[C@@H](NC2=NCCN2)CC3)cc1`, above 100 µM; in that of `O=C(Cc1ccc([N+](=O)[O-])c([N+](=O)[O-])c1CC(=O)C(=O)Nc1cc(Cl)ccc1Cl)C(=O)Nc1cc(Cl)ccc1Cl`, above 100 µM.
`CCN(CC)CC(=O)NC1c2ccccc2Oc2c(C)cccc21` (configuration not stated) showed a TGI above 100 µM.
Turning to `CCOCC(=O)N(C)c1cccc2c3c(n(C)c12)CCCCC3`, the TGI is above 100 µM.
Consider `CC(C)N(C(=O)C12C3C4C1C1C2C3C41I)C(C)C` (configuration not stated), for which the TGI is above 100 µM.
In the case of `CC(=O)OC(C)(C)/C=C/C(=O)[C@](C)(O)[C@H]1[C@H](O)C[C@@]2(C)[C@@H]3CC=C4[C@@H](C=C(O)C(=O)C4(C)C)[C@]3(C)C(=O)C[C@]12C`, the TGI was 7.57 µM and 5.65 µM and 6.49 µM.
Same read-out and setting: in the case of `CCOC(=O)C(/C(=N\NC(=O)OC)C(=O)Nc1cc(OC)ccc1OC)c1cnc2ccccc2n1` (configuration not stated) it was above 100 µM; in that of `CN(C)C(=O)OC1=CC2CCC(C1)N2C` (configuration not stated), above 100 µM.
With `CC[C@]1(O)CC2CN(CCc3c([nH]c4ccccc34)[C@@](C(=O)OC)(c3cc4c(cc3OC)N(C=O)[C@H]3[C@@](O)(C(=O)OC)[C@H](OC(C)=O)[C@]5(CC)C=CCN6CC[C@]43[C@@H]65)C2)C1` (some centres not stated), the GI50 is 23.1 µM and the TGI was above 50 µM.
`O=Cc1c(-c2ccccc2)[nH]c2ccccc2c1=O` displayed a TGI above 100 µM.
On to `O=C(CO[N+](=O)[O-])OC/C=C/c1ccccc1`, for which the TGI was above 100 µM.
Consider `O=C(CCl)Nc1cc(Cl)c(Cl)cc1Cl`, for which the TGI turned out to be 3.39 µM.
On the same count and under the same terms, in the case of `CCCCNC(=NCc1ccccc1)NC#N` it was above 100 µM.
As for `Cc1ccc(/C=C/c2c(C(=O)/C=C/c3ccc(Cl)cc3)c(C)nc3ccccc23)cc1`, the GI50 was 1.49 µM and the TGI was 2.86 µM.
`N#Cc1ncn(CCO)c1N`: the TGI is above 100 µM.
The same measure, in the same setting: the value for `CCOc1ccc(OCC)c([P+](c2ccccc2)(c2ccccc2)c2ccccc2)c1` was 40.7 µM; that for `CN(C)C=NC1CCC(C(C)(C)C)CC1` (configuration not stated) was 58.2 µM; that for `C/C(=N/NC(=O)C[n+]1ccccc1)C(CN(CC(C)C)CC(C)C)C(=O)Nc1ccc(C)cc1C` (configuration not stated) was above 100 µM.
The same measure, in the same setting: in the case of `OCCCSCCO` it was above 100 µM; in that of `C[C@@]1(Cc2ccccc2)C(=O)N2[C@@H](CO)C(c3ccccc3)O[C@]2(C)c2ccccc21` (some centres not stated), above 100 µM.
Compound `C(=Nc1cnc2ccccc2c1)c1ccc2ccccc2n1` registered a TGI above 100 µM.
The same measure, in the same setting: in the case of `CC1=CC(O)C(C(O)(C(F)(F)F)C(F)(F)F)C(C)(C)C1` (configuration not stated) it was above 10 µM; in that of `O=CNc1ccc(S(=O)(=O)c2ccc(NC=O)cc2)cc1`, above 100 µM; in that of `CN(C)/C=N\c1nncc2[nH]cnc12`, above 100 µM.
Compound `CC12C(=C(C#N)C(=N)N1c1ccc(Cl)c(Cl)c1)C=C(O)CC2SCCS(=O)(=O)O` (configuration not stated) yielded a TGI above 100 µM.
`Cc1cc2ccc(OC(=O)c3ccc(N=C(N)N)cc3)cc2oc1=O` registered a TGI above 100 µM.
On the same count and under the same terms, the value for `COC1[C@H](NC(=O)OC(C)(C)C)C(=O)N1Cc1ccccc1` (some centres not stated) was above 100 µM; that for `CS(C)(=O)=Nn1c(=O)n2n(c1=O)C1c3ccccc3C2c2ccccc21` was above 100 µM; that for `O=[N+]([O-])c1ccc(C2=NOC(c3ccc(Cl)cc3)N2C23CC4CC(CC(C4)C2)C3)cc1` (configuration not stated) was above 100 µM.
The same measure, in the same setting: the value for `COc1cc(C2c3cc4c(cc3OC(NCCc3ccccc3)C2C)OCO4)cc(OC)c1OC` (configuration not stated) was above 100 µM.
For the compound `NC(Cc1c[nH]c2ccc(F)cc12)C(=O)O` (configuration not stated), the GI50 is 606 µM and the TGI was found to be 2370 µM.
The corresponding values for `NC1=NC(=O)/C(=C/c2ccc3ncccc3c2)S1` are above 25 µM and above 25 µM.
Compound `CCOC(=O)c1cnc2c(ccc3[nH]cccc32)c1=O` displayed a TGI above 100 µM.
Take `O=C(COc1ccc(OCC(=O)N2C(=O)CN(c3ccccc3)C2=S)cc1)N1C(=O)CN(c2ccccc2)C1=S`: the GI50 was above 25 µM and the TGI was above 100 µM.
In the case of `COc1cccc2nc3ccccc3nc12`, the TGI is above 100 µM.
The same measure, in the same setting: in the case of `O=C(O)C1CCCCN1C(=O)Cc1c[nH]c2ccccc12` (configuration not stated) it was above 100 µM; in that of `COc1cc(/C=N/c2ccccn2)cc(OC)c1OC`, above 100 µM.
In the case of `CCN(CC)CCN1C(=O)C2C3C(=O)CC(C)(CC3C)C2C1=O` (configuration not stated), the GI50 is above 100 µM and the TGI is above 100 µM.
As to `Cc1ccc(NC(=O)Nc2c(Cl)cccc2Cl)cn1`, the GI50 was 34.7 µM and the TGI was above 100 µM.
Take `CCOC(=O)[C@@H]1ON2O[C@H](OC3CCCCC3c3ccccc3)C[C@H]3OC(=O)[C@@H]1C32` (some centres not stated): the TGI was above 100 µM.
Compound `O=C1/C(=C/c2[nH]ncc2-c2ccc(Cl)cc2)C(=O)N(c2ccccc2)C1c1ccccc1` (configuration not stated) yielded a TGI above 100 µM.
Same read-out and setting: the value for `O=C(N/C(=C\c1ccccc1Cl)c1nc2ccccc2[nH]1)c1ccccc1` was above 100 µM.
On the same count and under the same terms, the value for `NC(=O)C(=CNC(=S)Nc1ccc(S(=O)(=O)Nc2ccccn2)cc1)C(N)=O` was above 100 µM; that for `CC(=O)Oc1c(OC(C)C)c(C)c(O[Si](C(C)C)(C(C)C)C(C)C)c2[nH]c3ccccc3c12` was above 100 µM.
For the compound `Cc1nc(-c2cnc(NC(C)C)n(C)c2=O)ccc1Oc1ccnc(-c2cnn(C)c2)c1`, the GI50 is 48.3 µM and the TGI was above 100 µM.
`Cc1nc(-n2nc(-c3ccccc3)cc2-c2ccccc2)sc1C(=O)/C=C/c1ccc(Cl)c(Cl)c1` yielded a TGI above 100 µM.
Take `COc1ccc(Cn2cc3c(c2)-c2oncc2CC3)cc1OC`: the GI50 was 0.196 µM and the TGI is above 50 µM.
For `CCCCCC[C@@H](C)Nc1nc2ccccc2c2occc12` the same measures were 12.5 µM and 27.7 µM.
For `CC1C(=O)c2cc3c(cc2CCN(C)Cc2c1ccc1c2OCO1)OCO3` (configuration not stated) the same measures were 34.9 µg/mL and above 75 µg/mL.
The corresponding values for `COc1cc(/C=C/C(=O)N2CCC=CC2=O)cc(OC)c1OC` are 4.2 µM and 15.8 µM.
In turn, `CCO/C(O)=C(/C(=N)N1CCCC1)C(=O)Nc1cccc(Cl)c1` registered a TGI above 100 µM.
Turning to `CCOC(=O)c1c(NC(=O)c2ccccc2)sc2c3c(ccc12)OCN(C)C3`, the GI50 was 1.59 µM and the TGI amounted to 3.07 µM.
Consider `CN1N=C(c2ccccc2)C(C(c2ccccc2[N+](=O)[O-])C2C(=O)N(C)N=C2c2ccccc2)C1=O` (configuration not stated), for which the TGI is above 100 µM.
Still for that read-out and setting: in the case of `COc1cc(C(C[N+](=O)[O-])SC(C)=O)ccc1OCc1ccccc1` (configuration not stated) it was 21.2 µM; in that of `Cc1ccc(NC(=O)CSc2nnc(Cc3ccccc3)o2)cc1`, above 100 µM.
On the same count and under the same terms, in the case of `COc1cc(/C=C/c2ccc(Br)cc2)cc(OC)c1OC` it was 71.9 µM; in that of `OC(Cc1ccc2ccccc2n1)(C(F)(F)Cl)C(F)(F)Cl`, above 10 µM.
Turning to `CC(=O)[CH-]C(=O)c1ccccc1.CC(=O)[CH-]C(=O)c1ccccc1.CC(C)CCC[C@H](C)C1CCC2[C@@H]3CC=C4C[C@@H]([O-])CC[C@]4(C)C3CC[C@@]21C.CC(C)CCC[C@H](C)C1CCC2[C@@H]3CC=C4C[C@@H]([O-])CC[C@]4(C)C3CC[C@@]21C.Cl.[Ti+4]` (some centres not stated), the GI50 is above 25 µM and the TGI was above 25 µM.
Turning to `C=C1C(=O)O[C@H]2[C@H]1CC/C(Cn1cc(-c3cccc(Cl)c3)nn1)=C\CC[C@@]1(C)O[C@@H]21`, the GI50 was 2.17 µM and the TGI is 5.58 µM.
Turning to `CCOC(=O)CCC(NC(=O)c1ccc(N=Cc2nc3ccccc3nc2-c2ccccc2)cc1)C(=O)OCC` (configuration not stated), the TGI is above 100 µM.
For the compound `NC(=O)CC1(O)C=C(Br)C(=O)C(Br)=C1`, the GI50 was 21 µM and the TGI came to 53.3 µM.
Turning to `O=C(O)c1c(Cl)c(Cl)c(Cl)c(Cl)c1C(=O)Nc1ccc2cn[nH]c2c1`, the TGI is above 100 µM.
For the compound `Cc1ccc(-c2nc(N3CCNCC3)c3oc(-c4ccccc4)nc3n2)cc1`, the GI50 was 1.63 µM and the TGI was found to be 2.99 µM.
As to `Oc1cnc2c(O)cccc2c1`, the TGI was above 100 µM.
The same measure, in the same setting: in the case of `O=C(c1ccccc1)c1ccc2c(c1)nc1n2C(c2c(F)cccc2F)SC1` (configuration not stated) it was above 100 µM; in that of `O=C(O)C(O)C(O)C(O)C(O)C(=O)O` (configuration not stated), above 100 µM; in that of `CCOC(=O)c1c(-c2cccc(Cl)c2)c(C(=O)OC)c(C)c2sc(C=O)nc12`, 35.8 µM.
Still for that read-out and setting: the value for `Cc1cc(S(=O)(=O)Nc2n[nH]c(Nc3ccc4ccccc4c3)n2)c(S)cc1Cl` was above 100 µM.

Source of the values: PubChem BioAssay (NCI).
